Reference: PubChem BioAssay AID1347120 (National Center for Advancing Translational Sciences (NCATS), 2019)
Among all 390,000 compounds or so, about 930 (0.24%) were called active. The shares of active, inactive and inconclusive entries below differ from those in the screen. Calls follow the shape of the dose curve; as a rule, active = well fitted activation curve with a large enough effect; inconclusive = small, poorly fitted or top-dose-only effect; inactive = no such curve, though single readings can be large or run the other way. Potencies beside an inconclusive call are fits to weak or partial responses and may not hold up.

Assay: qHTS for Suppressors of FUS Proteinopathy: Primary screen using FUS-linked yeast assay; also: nearly all actives have a fitted effect of over 55% in size;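 as to growth rescue (activation): plate controls were DMSO vehicle for no effect and reference control for full effect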
Conditions: S. cerevisiae FUS-expressing, OD600, 24 h; Potency: growth rescue; growth rescue (activation): at 76.6 µM (top of the series)
Summary of the method: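 Cultures pregrown in 2.5% raffinose medium are shifted to minimal medium containing 2% galactose to express toxic FUS. Compounds are tested at several concentrations. After 24hr at 30C, growth is quantified at 600 nm absorbance.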
Potency is read from the fitted curve at half-maximal effect; tags tell the direction and shape of the fitted curve.

Row | SMILES | Potency | growth rescue (activation)
1 | COc1ccc(C(c2nnnn2Cc2ccccc2)N2CCC(n3c(=O)[nH]c4ccccc43)CC2)cc1 (configuration not stated) | inconclusive: 39.8 µM [activator, single point] | 
2 | CC(C)N1C(=O)/C(=C/C=C/c2ccco2)C(=O)N(Cc2ccco2)C1=O | inconclusive: 28.2 µM [activator, partial curve] | 
3 | CC(C)c1ccc(-n2c(O)c(/C=N/NC(=O)c3ccccc3O)c(=O)[nH]c2=S)cc1 | inconclusive: 12.6 µM [activator, partial curve, poor fit] | 
4 | Cc1cc(C(=O)OCC(=O)Nc2cccc(F)c2)c(C)n1C1CC1 | inconclusive: 25.1 µM [activator, partial curve, poor fit] | 
5 | COc1ccc(OC)c(N2C(=O)/C(=C/c3ccco3)C(=O)NC2=S)c1 | inconclusive: 12.6 µM [activator, partial curve, poor fit] | 
6 | CCCCCCn1c(N)c(C(=O)NCCN2CCOCC2)c2nc3ccccc3nc21 | inconclusive: 3.55 µM [activator, full curve, poor fit] | 
7 | CC1(C)CC(n2[nH]c(=O)c3c2NC(=O)CSC3c2ccccc2)CCO1 (configuration not stated) | inconclusive: 0.794 µM [activator, partial curve, poor fit] | 
8 | CC(C)(C)N1C(=O)NC(=O)/C(=C\c2ccc3c(c2)CCN3CCCCl)C1=O | inconclusive: 11.2 µM [activator, partial curve, poor fit] | 
9 | CCOC(=O)[C@]12Cc3c(cc(OC)c(OC)c3OC)[C@H]1N(Cc1ccccc1)C(=O)c1ccccc12 | inconclusive: 31.6 µM [activator, partial curve] | 
10 | C=C1N2CCC(CC2)C1(O)c1ccc(C)cc1 (configuration not stated) |  | inactive: 21.6%
11 | CCOC(=O)C(NC(=O)C(Cc1ccc(N(CCCl)CCCl)cc1)NC(C)=O)C(C)C (configuration not stated) |  | inactive: -11.8%
12 | C=C1C(=O)O[C@H]2[C@H]1[C@H](OC(=O)CC(=O)O[C@@H]1C[C@@H](C)[C@@H]3C=CC(=O)[C@@]3(C)[C@H]3OC(=O)C(=C)[C@H]13)C[C@@H](C)[C@H]1C=CC(=O)[C@]12C | inconclusive: 28.2 µM [activator, single point] | 
13 | CN1C(=O)C2C[C@@]3(Br)c4ccccc4N(OOSc4ccccc4)[C@H]3N2C(=O)[C@@H]1Cc1ccccc1 (some centres not stated) | inconclusive: 35.5 µM [activator, single point] | 
14 | O=C1NCN(c2ccccc2)C12CCN(C(CCc1ccccc1)c1nnnn1C1CCCCC1)CC2 (configuration not stated) | inconclusive: 11.2 µM [activator, partial curve] | 
15 | C[C@H]1CC[C@@H]2[C@@H](C)[C@H]3[C@H](C[C@H]4[C@@H]5CC=C6C[C@@H](O[C@@H]7O[C@H](CO)[C@H](O)[C@H](O[C@@H]8O[C@H](CO)[C@@H](O)[C@H](O)[C@H]8O)[C@H]7O[C@@H]7O[C@@H](C)[C@H](O)[C@@H](O)[C@H]7O)CC[C@]6(C)[C@H]5CC[C@]34C)N2C1 | inconclusive: 25.1 µM [activator, partial curve] | 
16 | Cc1cc(OCC(=O)N2CCC(C(=O)O)(c3ccccc3)CC2)c2c(C)c(C)c(=O)oc2c1 | inconclusive: 31.6 µM [activator, single point] | 
17 | C[n+]1c2ccccc2nc2ccc(NCCO)cc21 |  | inactive: -7.51%
18 | COP(=S)(OC)SCN1C(=O)c2ccccc2C1=O |  | inactive: -17.1%
19 | COC(=O)C1=C(c2ccccc2OCc2ccccc2)C[C@@H]2CC[C@H]1N2C(=O)NCc1ccc([N+](=O)[O-])cc1 | active: 28.2 µM | 

Row | SMILES | Potency | growth rescue (activation)
20 | Cc1cc(/C=C2\C(=O)NC(=O)N(Cc3ccco3)C2=O)c(C)n1-c1ccc(O)cc1 | inconclusive: 8.91 µM [activator, partial curve, poor fit] | 
21 | c1cc2c(cc1[C@H]1OCC3C1CO[C@@H]3c1ccc3c(c1)OCO3)OCO2 (some centres not stated) | inconclusive: 35.5 µM [activator, single point] | 
22 | COc1ccc(N2C(=O)/C(=C/c3ccc(C)o3)C(=O)NC2=S)cc1 |  | inactive: 19.8%
23 | Cc1cc(C)cc(NC(=O)CN2C(=O)CN=C(c3ccccc3)c3cc(Cl)ccc32)c1 | inconclusive: 25.1 µM [activator, single point] | 
24 | O=C(N/N=C/c1c(O)n(Cc2ccccc2)c(=O)[nH]c1=O)c1ccncc1 | inconclusive: 5.01 µM [activator, full curve, poor fit] | 
25 | N#CC(C#N)=Cc1ccc(C=C(C#N)C#N)cc1 |  | inactive: -2.09%
26 | CC1CCC/C=C/C2CC(O)CC2C(O)/C=C/C(=O)O1 (configuration not stated) |  | inactive: 5.98%
27 | CCCCn1nnnc1C(c1cccc2ccccc12)N1CCC2(CC1)C(=O)NCN2c1ccccc1 (configuration not stated) | active: 10 µM | 
28 | Cc1ccc(N2C(=O)NC(=O)/C(=C/C=C/c3ccco3)C2=O)cc1 | inconclusive: 7.08 µM [activator, single point] | 
29 | Cc1[nH]c2ccccc2c1CCNCc1cccnc1 |  | inactive: -6.09%
30 | CN1CCc2nc3sc(C(=O)NC(C)(C)C)c(N)c3cc2C1 |  | inconclusive: 72.6% [activator]
31 | O=c1[nH]c2ccccc2n1C1CCN(C(c2ccccc2OC(F)(F)F)c2nnnn2Cc2ccccc2)CC1 (configuration not stated) | active: 20 µM | 
32 | COC(=O)C1=C(c2cccc(OCc3ccccc3)c2)C[C@@H]2CC[C@H]1N2C(=O)NCCc1ccc(F)cc1 | inconclusive: 15.8 µM [activator, partial curve, poor fit] | 
33 | O=c1[nH]c(=O)n(CCC2=CCCCC2)c(O)c1/C=N/Nc1ccccc1 | inconclusive: 50.1 µM [activator, single point] | 
34 | CN1C(=O)N(C)C(=O)C2(Cc3cc(NC(=O)c4ccc(F)cc4)ccc3N3CCCC32)C1=O (configuration not stated) | inconclusive: 17.8 µM [activator, partial curve, poor fit] | 
35 | S=C(NCCc1ccccc1)N1Cc2cc(-c3ccccc3)ccc2-n2nncc2C1 | inconclusive: 7.94 µM [activator, partial curve, poor fit] | 
36 | CCOC(=O)[C@]12Cc3cc(C)ccc3[C@H]1N(Cc1ccccc1)C(=O)c1cc(OC)ccc12 | inconclusive: 50.1 µM [activator, single point] | 
37 | CCCCn1nnnc1C(c1cccc(OC)c1OC)N1CCC2(CC1)C(=O)NCN2c1ccccc1 (configuration not stated) | inconclusive: 3.98 µM [activator, full curve] | 
